# From publication PMC10726135
# This is one part of the list. At the low end of the ranking the order means little. The protein was read in a cell extract, so binding may be indirect.
# Biological target: T1, HNF4alpha8 (COS-7 nuclear extract) (UniProt P41235-5)
# T1 sequence: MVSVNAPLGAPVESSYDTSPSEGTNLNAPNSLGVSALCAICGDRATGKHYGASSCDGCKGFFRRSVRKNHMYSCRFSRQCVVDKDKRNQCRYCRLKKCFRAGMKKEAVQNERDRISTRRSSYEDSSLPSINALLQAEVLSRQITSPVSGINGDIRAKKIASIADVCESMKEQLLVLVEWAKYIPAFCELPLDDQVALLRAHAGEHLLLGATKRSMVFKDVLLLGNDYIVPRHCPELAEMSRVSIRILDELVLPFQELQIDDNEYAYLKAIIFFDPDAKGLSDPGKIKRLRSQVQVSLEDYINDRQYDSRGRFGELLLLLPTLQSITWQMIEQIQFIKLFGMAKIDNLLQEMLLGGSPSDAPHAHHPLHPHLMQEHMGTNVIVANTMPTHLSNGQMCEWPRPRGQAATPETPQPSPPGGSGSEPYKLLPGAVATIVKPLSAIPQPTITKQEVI
# Test: protein-binding microarray
# Conditions: COS-7 nuclear extract on double-stranded Agilent 4x180k PBM; binding buffer, salt, pH and temperature not given; high values mean tight binding; double strand, one strand shown; sequences stand for … in …GCCTAGGGAGATTAGAGTATCGGTCGA
row,Sequence,binding signal (log2 normalized intensity)
1,AAAGAGGGCCCCATCATGTGTACAGAGCTG,-1.19
2,GCAGGGGGCCAAGGGATACCCTGAGAGATC,-1.24
3,TATGACCTTTGCTTTTCAAGATTTTACCTA,2.72
4,AAGCCATAGTTAACCCAGAAGACTGTCAAC,-1.24
5,GGACAAGGGGGAGGAGAGTACTGTCTCTTA,-1.13
6,AGCCACCAGTGCAAATATAAAAGGCTGTCA,-1.25
7,AACCTCCCTCCAAAATATCTCACTCCCACA,1.43
8,TTTGCAGTAGGATAAGTCCTTCCAAAGTCC,4.93
9,GCTCAGGGAATGTGGGTCCACATTCCTGAT,1.97
10,TTAGATATGGCTTATACTTGAGGTATGATG,1.68
11,AGTGGAATGTGCCCTTTGACCTCTCTCTCC,8.33
12,CAAACACACAATATTGACATTCCAGCCTCC,-1.3
13,TGCCCTCTTGTCCTTCCCCTTTTGTGTTTG,2.97
14,CCTCTAGTGGCCCAGTGTCTCTGGGCGCTG,-1.42
15,AGAAACCTCAAAGGTTAGGGGGATTCTGGC,-1.05
16,GGCTAAGGTCACCATGACCATAAACCACAA,-1.35
17,GGTGAACTCAGTCCTTTCAGGACACCTTCA,-1.05
18,TATCTGTTAGGGCCATTTGGTCTGTAGTGT,2.06
19,CAGAGATACTATTGATAACATCTAACAGCT,-1.48
20,GGATGCCCTTTGACCTCTGCTTCCTGCTAC,6.5
21,TGGGCTTGCCTAAGACATGCTCGCAGCTGC,-1.31
22,GCTTCTCCTGGCTTTAGATATCAGAAATGC,0.508
23,GTACACAAAGGTATCAGGGCTCAGGAATGT,-1.18
24,GTAACCACAGTACTGTCTTTTTGCCACTAG,-1.46

row,Sequence,binding signal (log2 normalized intensity)
1,AGGAGGAGGCCTAGGCAGTCCACAGACAAA,-1.33
2,TAGAATCTTAGGAAAGCACAGCTGATTGCT,-1.34
3,CCCTGCCACTCTTTTTTAGACTTTGACCTC,10.2
4,GATGGTGAGTTCTGTCCTTTGTCCCACATC,3.05
5,TGACTAGAGAGCAGGAGCCACCTGTCACTC,-1.34
6,CTCTCAACTCAGTGAGGGCTATTGACAAAG,-1.04
7,TCAATTTACCTCTGCTCCCCCTGCCCTTCG,4.07
8,CTCAAGAAAGAGGTGGTTCTTTCTGAGTTG,0.828
9,ATGGGAAGCCTCAGGAGTTGGAGGAACAGG,-1.41
10,GGGCAGTGTTTGCCCAGCTTGAATCACTCA,-1.38
11,GCCCCTGGGTCGTTGGTGCTCCCCCACCCT,4.41
12,CCCATTCCTTCTCACCGGGTGGAGCCTCAC,0.614
13,GTCAAATTGGTGCTTTCATCCCCTGCATCC,1.71
14,ACTGAGCTTTAGATAGCTGTTAAATGGAGT,0.221
15,AAATAACGAAGGCATTCTTAACAAAACCTG,-1.22
16,TCACTGTAACCTTTGCCCCCCAAGTTGAAG,7.68
17,GCCTTATCACCATTCAGATAAATGGTGTAG,-1.39
18,TAAATGCCTCCCCCTCTTTATCTCCTGGAA,2.84
19,CTGAGTCTGATAAGGAAGATAATGGGTCCG,1.38
20,CAGAGGTTTCGCAAGGACGTGACCTTTATG,4.94
21,TAACGCCCGCCTAACCTTGAGGAGCCCTAT,-1.38
22,TTTGTCCCCCACCTGTGAAGATAAGCTGTC,3.17
23,GAAAGTGAGGCCTGGCCGAGGTTGCCCAGC,-0.923
24,CACACTGTACCCGTCCACCTTTGGATCCAG,3

row,Sequence,binding signal (log2 normalized intensity)
1,CTATTCTCAGTGATATAAAACCTTTTTCTG,1.37
2,TCCACTGAAAATGCCAAGTTTCAGGCTATG,-1.36
3,TGACCTTTAGCCTGGCCATTTCTCAGGTTG,4.5
4,GCATCCTTCTCCTCCCCTCCCCCCAGTTCC,5.79
5,AAATGAAAACACAGCTCACCACCTAGTAAA,-1.23
6,GCCAGGCAGGAAGGAGCCTGCTTTGCTGAG,-1.12
7,GAACATGGACTTTGAACCTCTCTTCTTTTT,7.93
8,TCTCTGCCCTCTTCCCTCTACCTCTGTTCT,2
9,AGTGACTCAGAGCATATGTTGACCCGAGTG,3.49
10,TCTTATCACCATCCCTGTTGCCTCATCTGA,0.485
11,CTCGGGGAGCTGTGGGCCTCACACCCTCTA,-1.37
12,CATGGACTTTGAACCAAGATATGCTAACAT,5.27
13,GCTGACCTACATTCCACCCTCATTTGCTTG,0.0951
14,AGCATCACCAGTGCAGCTGACCTACATTCC,1.39
15,CAAGCCAGAAAGATGTTTGCCCCAAGATAA,2.44
16,GATAGTAAAATGGACTTTGTGGGCCAAAAG,3.36
17,TCATACCACATGGATGGATTCAGATCCAGT,-1.32
18,GGAAAGAACAGGTCAAAGGTCAGTTTCTTT,7.69
19,ACTCAGGCATTCTGACCTTTGTCTCCAGGC,6.52
20,CACACTCACAGAACACAGTGTTTGCTTTAG,-0.807
21,AGTCTGTTATCCCTAGGAAGGATAAGAGCA,-0.925
22,TCTGATGCGGCTTCTCATACTACTGTACTT,1.21
23,GTGCACCCTGGTCTCTCTTACCCAACCAAA,2.74
24,AAGGGTAATCTGCTTTTCTCGAAGCCAACT,-1.25

row,Sequence,binding signal (log2 normalized intensity)
1,TACCTTTCTTATCATAAGTAAAAAGAGAGA,0.54
2,TAACAATGCTGATGGGGACCACAGAGAACT,-1.16
3,GCCTCCCCCTCTTTATCTCCTGGAATCCAA,2.15
4,GTTCTATCGGAGAACGTTCCAAACCTACAC,-1.31
5,CACCCAGGCTGAAGTCCAGTAGCTCAATCA,-1.13
6,TTTGGCCCCCAGAGCCCCGTGTCTCCCTAC,4.89
7,AGGTGAAACTCCAGGCTCCAAGGGTATAGG,-1.32
8,ATGGGGAGCAGTGGGAGGTGAGGAAAACGG,-1.24
9,AGCTGGCCTCACTAAGTCCTGCTTAGAGCA,-1.31
10,ACGTCTAGAGCTGTCCAGCAGACAATGGGA,-1.25
11,AAGGCACAATCAGGGCTAAAGTCAGGGGCA,-1.44
12,GTCCAAAGGTAAAAACTGGCTCTTATTTTT,0.401
13,AGGCCGGAGGTCTGGAATGTGGAGAATGGC,-1.25
14,TCTCTCCTGGTTTGGGGCCTAAATGCTTCT,-0.527
15,ATTTGTGATCTGGCACAAATTCTAGATTCA,-1.33
16,AAACACCTAGAGTTACAGTCACTCCCTATC,-0.853
17,CAGTCGATCTTTGACCGCTGCCTCCCACCC,4.31
18,TTTGAAAGAAAGAGACCTTTACCCTGACCT,4.47
19,TTCATTAAAAAAAAAAAAAAATACTCCTAT,-1.21
20,AACCTGTTGGGTCAGGCTGCTCAGCTGCCT,-1.28
21,CCAGCCTGGCCTCTAGAGTGGTTGCCTGTG,-1.39
